25 molecules from article PMC6656915, “The MmpL3 interactome reveals a complex crosstalk between cell envelope biosynthesis and cell elongation and division in mycobacteria” (Scientific Reports, 2019) can be followed below.

Protein sequences, listed by entry. Tags and fused reporters are not part of them. Residues count along the entry.
UniProt P9WFS5: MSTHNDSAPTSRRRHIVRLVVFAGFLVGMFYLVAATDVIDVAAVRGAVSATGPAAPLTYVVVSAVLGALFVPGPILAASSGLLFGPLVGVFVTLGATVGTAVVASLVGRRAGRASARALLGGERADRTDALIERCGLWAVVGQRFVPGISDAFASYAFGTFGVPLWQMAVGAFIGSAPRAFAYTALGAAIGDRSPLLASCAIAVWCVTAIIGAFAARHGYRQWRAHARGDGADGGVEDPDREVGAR
UniProt P9WQP1, residues 41-325: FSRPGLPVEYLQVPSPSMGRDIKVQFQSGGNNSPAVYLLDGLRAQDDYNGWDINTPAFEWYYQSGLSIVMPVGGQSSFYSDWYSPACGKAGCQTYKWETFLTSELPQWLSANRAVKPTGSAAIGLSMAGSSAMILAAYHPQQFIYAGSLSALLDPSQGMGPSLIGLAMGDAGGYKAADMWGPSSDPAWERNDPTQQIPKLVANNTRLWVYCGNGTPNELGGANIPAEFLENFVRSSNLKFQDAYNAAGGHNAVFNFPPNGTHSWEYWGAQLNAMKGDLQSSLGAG
UniProt I6Y748: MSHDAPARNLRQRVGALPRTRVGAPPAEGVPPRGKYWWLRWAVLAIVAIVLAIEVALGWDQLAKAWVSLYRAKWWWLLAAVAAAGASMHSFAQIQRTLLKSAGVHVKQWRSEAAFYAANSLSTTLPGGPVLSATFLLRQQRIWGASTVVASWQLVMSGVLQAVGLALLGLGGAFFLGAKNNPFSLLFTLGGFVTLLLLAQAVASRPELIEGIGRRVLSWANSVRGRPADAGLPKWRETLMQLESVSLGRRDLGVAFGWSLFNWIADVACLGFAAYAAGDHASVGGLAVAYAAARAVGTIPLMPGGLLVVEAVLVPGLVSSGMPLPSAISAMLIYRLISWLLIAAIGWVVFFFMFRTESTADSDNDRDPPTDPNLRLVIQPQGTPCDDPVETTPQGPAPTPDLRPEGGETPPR
UniProt I6X7F2: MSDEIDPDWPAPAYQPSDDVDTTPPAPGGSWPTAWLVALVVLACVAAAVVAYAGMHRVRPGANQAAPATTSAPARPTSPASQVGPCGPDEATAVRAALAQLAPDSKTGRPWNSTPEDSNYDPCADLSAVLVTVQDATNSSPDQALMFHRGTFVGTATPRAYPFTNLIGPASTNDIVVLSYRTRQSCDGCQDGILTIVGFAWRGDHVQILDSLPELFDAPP
UniProt P9WQP3, residues 44-338: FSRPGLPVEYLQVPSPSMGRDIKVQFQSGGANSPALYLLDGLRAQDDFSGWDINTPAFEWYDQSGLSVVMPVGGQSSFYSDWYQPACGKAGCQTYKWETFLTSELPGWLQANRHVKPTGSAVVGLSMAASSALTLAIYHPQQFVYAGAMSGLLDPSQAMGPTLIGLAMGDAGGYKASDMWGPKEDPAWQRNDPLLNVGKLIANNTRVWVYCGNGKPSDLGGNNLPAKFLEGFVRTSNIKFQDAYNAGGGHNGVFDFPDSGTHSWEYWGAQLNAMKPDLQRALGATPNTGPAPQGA
UniProt I6X8D2: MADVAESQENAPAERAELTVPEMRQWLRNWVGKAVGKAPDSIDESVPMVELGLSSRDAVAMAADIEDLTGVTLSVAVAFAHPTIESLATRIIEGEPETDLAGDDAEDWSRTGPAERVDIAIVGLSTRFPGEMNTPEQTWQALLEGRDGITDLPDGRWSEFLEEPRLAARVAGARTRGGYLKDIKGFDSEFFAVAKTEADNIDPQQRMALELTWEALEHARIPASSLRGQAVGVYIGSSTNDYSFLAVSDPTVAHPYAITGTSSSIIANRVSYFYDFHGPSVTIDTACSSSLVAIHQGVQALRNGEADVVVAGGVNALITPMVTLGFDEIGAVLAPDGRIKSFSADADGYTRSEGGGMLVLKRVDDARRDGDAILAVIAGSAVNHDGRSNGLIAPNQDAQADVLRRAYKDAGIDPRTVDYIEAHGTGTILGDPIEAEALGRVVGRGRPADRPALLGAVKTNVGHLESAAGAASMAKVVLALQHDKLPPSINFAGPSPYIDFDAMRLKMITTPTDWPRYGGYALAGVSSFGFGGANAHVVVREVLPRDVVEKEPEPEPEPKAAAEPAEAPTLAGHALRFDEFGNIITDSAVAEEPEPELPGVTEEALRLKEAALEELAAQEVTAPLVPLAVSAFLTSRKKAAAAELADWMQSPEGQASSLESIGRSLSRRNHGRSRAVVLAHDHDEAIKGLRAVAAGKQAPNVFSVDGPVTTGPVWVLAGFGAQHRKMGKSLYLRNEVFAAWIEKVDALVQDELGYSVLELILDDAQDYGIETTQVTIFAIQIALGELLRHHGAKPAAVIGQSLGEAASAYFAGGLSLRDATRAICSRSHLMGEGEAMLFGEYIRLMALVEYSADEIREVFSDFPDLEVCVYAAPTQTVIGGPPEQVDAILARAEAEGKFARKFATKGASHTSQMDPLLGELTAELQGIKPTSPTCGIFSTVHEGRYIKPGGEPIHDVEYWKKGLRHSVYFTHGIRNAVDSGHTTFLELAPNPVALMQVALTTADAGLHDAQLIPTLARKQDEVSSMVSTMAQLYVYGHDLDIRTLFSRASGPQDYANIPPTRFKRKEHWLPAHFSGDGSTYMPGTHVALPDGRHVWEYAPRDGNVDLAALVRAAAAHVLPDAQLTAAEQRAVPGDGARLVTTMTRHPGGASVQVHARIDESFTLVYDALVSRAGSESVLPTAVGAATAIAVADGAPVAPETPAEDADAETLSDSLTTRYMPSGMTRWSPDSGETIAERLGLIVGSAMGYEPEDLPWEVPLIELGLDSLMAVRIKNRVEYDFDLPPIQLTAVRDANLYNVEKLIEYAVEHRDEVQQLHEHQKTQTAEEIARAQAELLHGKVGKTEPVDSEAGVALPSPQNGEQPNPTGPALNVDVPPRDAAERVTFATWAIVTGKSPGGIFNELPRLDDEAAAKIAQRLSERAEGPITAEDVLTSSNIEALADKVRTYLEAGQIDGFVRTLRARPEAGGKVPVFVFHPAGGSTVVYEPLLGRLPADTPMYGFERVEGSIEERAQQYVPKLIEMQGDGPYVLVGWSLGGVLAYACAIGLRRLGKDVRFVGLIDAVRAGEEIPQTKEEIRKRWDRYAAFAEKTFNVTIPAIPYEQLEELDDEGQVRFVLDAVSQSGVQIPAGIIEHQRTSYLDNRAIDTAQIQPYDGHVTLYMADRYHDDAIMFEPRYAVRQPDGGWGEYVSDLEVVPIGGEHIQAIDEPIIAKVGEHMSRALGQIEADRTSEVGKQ
UniProt P9WM21: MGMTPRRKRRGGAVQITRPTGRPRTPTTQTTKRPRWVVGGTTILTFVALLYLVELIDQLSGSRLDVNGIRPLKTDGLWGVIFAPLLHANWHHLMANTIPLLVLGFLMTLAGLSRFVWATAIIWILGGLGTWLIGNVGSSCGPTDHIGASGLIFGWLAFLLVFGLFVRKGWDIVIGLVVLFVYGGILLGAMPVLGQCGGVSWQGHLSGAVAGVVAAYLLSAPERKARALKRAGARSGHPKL
UniProt P9WQN9, residues 46-340: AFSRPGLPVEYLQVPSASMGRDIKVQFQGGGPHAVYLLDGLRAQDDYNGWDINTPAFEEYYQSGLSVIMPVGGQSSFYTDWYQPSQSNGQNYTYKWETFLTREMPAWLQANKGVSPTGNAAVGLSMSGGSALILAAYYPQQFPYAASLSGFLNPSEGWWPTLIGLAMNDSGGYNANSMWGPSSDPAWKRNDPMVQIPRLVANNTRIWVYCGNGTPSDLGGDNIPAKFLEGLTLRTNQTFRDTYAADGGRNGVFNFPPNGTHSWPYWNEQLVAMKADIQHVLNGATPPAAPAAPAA
UniProt O05436: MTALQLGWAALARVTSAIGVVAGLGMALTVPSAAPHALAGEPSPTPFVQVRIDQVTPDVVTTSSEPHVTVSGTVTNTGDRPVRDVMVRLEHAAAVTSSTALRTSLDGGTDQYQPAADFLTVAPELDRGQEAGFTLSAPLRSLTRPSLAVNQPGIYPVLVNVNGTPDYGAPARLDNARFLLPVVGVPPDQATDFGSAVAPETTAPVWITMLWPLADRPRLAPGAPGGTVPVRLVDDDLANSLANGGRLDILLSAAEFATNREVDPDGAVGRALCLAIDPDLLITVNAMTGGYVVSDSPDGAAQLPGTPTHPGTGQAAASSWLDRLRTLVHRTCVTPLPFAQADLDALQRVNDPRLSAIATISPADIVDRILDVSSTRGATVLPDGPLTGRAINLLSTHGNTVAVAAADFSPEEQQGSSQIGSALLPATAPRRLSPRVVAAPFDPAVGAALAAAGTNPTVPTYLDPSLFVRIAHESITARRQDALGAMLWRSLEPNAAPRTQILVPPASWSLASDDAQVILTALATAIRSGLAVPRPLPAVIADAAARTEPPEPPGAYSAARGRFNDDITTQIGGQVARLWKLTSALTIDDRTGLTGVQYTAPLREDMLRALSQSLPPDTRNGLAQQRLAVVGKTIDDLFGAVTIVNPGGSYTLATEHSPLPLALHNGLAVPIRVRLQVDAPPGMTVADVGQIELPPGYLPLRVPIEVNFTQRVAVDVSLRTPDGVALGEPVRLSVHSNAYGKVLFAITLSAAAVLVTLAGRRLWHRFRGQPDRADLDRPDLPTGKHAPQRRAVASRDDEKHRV

Assay [1] concerns the target MmpL3tb^1–744, T18/T25 fusion (M. tuberculosis) (UniProt P9WJV5). Nature of the assay: two-hybrid.
In assay [2] the target is T1, MmpL3 (full-size), T18/T25 fusion (M. tuberculosis) (UniProt P9WJV5).
T1 sequence: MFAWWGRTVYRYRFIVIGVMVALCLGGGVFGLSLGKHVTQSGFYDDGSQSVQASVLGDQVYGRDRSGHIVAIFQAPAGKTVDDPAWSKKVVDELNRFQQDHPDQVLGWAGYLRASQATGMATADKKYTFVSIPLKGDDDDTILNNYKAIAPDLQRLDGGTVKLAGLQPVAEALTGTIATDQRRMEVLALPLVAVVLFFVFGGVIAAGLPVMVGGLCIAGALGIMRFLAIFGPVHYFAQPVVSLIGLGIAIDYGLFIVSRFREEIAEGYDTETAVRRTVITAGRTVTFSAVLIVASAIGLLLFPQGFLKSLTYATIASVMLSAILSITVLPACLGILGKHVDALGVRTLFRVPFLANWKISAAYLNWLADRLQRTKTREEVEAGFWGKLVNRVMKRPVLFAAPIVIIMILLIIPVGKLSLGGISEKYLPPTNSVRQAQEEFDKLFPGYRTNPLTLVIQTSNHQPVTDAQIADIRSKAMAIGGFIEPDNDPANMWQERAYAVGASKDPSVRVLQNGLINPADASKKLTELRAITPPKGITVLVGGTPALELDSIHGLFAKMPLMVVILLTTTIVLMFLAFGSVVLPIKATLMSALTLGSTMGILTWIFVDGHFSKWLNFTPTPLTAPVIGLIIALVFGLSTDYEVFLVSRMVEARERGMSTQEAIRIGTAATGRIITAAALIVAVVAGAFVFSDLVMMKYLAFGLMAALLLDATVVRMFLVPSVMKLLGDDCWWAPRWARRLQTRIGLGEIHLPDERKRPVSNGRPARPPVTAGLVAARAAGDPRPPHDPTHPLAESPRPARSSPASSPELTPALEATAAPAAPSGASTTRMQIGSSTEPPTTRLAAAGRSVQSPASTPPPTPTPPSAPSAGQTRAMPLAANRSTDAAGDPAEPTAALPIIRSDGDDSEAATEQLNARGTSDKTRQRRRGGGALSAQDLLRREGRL
Nature of the assay: two-hybrid.

In assay [3] the target is T2, MmpL3 protein from M. tuberculosis, C-terminally hexahistidine-tagged, devoid of gfp fusion (M. tuberculosis) (UniProt P9WJV5).
T2 sequence: T1 sequence
Kind of assay: SPR; MmpL3 immobilised on CM5 chip; analytes injected at two-fold increasing concentrations from 0.6 µM up to 10 µM, 10 µL/min for 30 sec, dissociation 180 sec, 25 °C; 20 mM HEPES pH 7.4, 150 mM NaCl, 0.2% Triton X-100 (0.03% DDM instead for AftD); global fit to the 1:1 Langmuir binding model; both purified.

The target of assay [4] is T3, MmpL3 from M. tuberculosis, C-terminally hexahistidine-tagged, purified (M. tuberculosis) (UniProt P9WJV5).
T3 sequence: T1 sequence
Nature of the assay: SPR; MmpL3 immobilised on CM5 chip; analytes injected at increasing concentrations (0.6 to 10 μM for AftD, Rv0207c, CrgA), 10 μL/min for 30 sec, 180 sec dissociation; 25 °C; 20 mM HEPES pH 7.4, 150 mM NaCl, 0.2% Triton X-100 (0.03% DDM instead for AftD); 1:1 model; both purified. In general terms: SPR reads the build-up and loss of mass on a sensor chip optically.

Assay [5] deals with T3, MmpL3 from M. tuberculosis, C-terminally hexahistidine-tagged, purified (M. tuberculosis). Kind of assay: BLI; Bio-layer interferometry; data not shown; both purified. On the technique in general: BLI is a label-free optical method that tracks binding on a fibre tip over time.

These are yes or no findings as the source states them, for the method shown. Some entries that bind do so weakly or less than the wild type. Tags and fused reporters may be left off the sequences shown.

Take “Rv0625c, T18/T25 fusion (from UniProt P9WFS5 1-246)”: the binding entry in assay [1] and in assay [2] was “binds” in each case.

Regarding “Rv2169c, T18/T25 fusion (from UniProt O53503 1-134)”, the binding result in assay [1] and in assay [2] was “binds” in each case.

With “Rv3064c, T18/T25 fusion (from UniProt I6XG31 1-141)”, the binding result in assay [1] and in assay [2] was “binds” throughout.

Take “FbpB mycolyltransferase (Ag85 complex), native purified protein (from UniProt P9WQP1 41-325) (enzyme)”: the binding result in assay [3] is “no binding (tested: 10 µM)”.

As to “MT2653, T18/T25 fusion (from UniProt Q8VJF5 1-48)”, the binding result in assay [1] and in assay [2] was “binds” in each case.

Regarding “Rv0204c, T18/T25 fusion (from UniProt I6Y748 1-412)”, the binding result in assay [1] and in assay [2] was “binds” throughout.

For “Rv3483c, T18/T25 fusion (from UniProt I6X7F2 1-220)”, the binding entry in assay [1] and in assay [2] was “binds” throughout.

Turning to “Rv3271c, T18/T25 fusion (from UniProt P96876 1-222)”, the binding result in assay [1] and in assay [2] was “binds” throughout.

Take “FbpA mycolyltransferase (Ag85 complex), native purified protein (from UniProt P9WQP3 44-338) (enzyme)”: in assay [3], the binding entry is on record as “no binding (tested: 10 µM)”.

Take “Pks13, T18/T25 fusion (from UniProt I6X8D2 1-1733)”: the binding entry in assay [2] is recorded as “no binding”.

As to “Rv1337, T18/T25 fusion (from UniProt P9WM21 1-240)”, the binding result in assay [1] and in assay [2] was “binds” each time.

For “Rv1457c, T18/T25 fusion (from UniProt O86349 1-261)”, the binding entry in assay [1] and in assay [2] was “binds” throughout.

Turning to “FbpC mycolyltransferase (Ag85 complex), native purified protein (from UniProt P9WQN9 46-340) (enzyme)”, the binding entry in assay [3] is “no binding (tested: 10 µM)”.

In the case of “LppT, T18/T25 fusion (from UniProt A5U3G6 1-63)”, the binding entry in assay [1] and in assay [2] was “binds” each time.

“Rv0227c, T18/T25 fusion (from UniProt P96409 1-421)”: the binding entry in assay [1] and in assay [2] was “binds” throughout.

For the molecule “Rv3909, T18/T25 fusion (from UniProt O05436 1-802)”, the binding result in assay [1] and in assay [2] was “binds” throughout.

With “MmpL3tb^1–744, T18/T25 fusion (from UniProt P9WJV5 1-744) (domain or fragment)”, the binding result in assay [1] and in assay [2] was “binds” throughout.

Regarding “Pks13 from M. tuberculosis H37Rv with C-terminal hexahistidine tag (from UniProt I6X8D2 1-1733) (enzyme)”, the binding result in assay [3] was “no binding (tested: 10 µM)”.

B1: FadD32, T18/T25 fusion (protein, UniProt O53580 1-637)
chain: MFVTGESGMAYHNPFIVNGKIRFPANTNLVRHVEKWAKVRGDKLAYRFLDFSTERDGVARDILWSDFSARNRAVGARLQQVTQPGDRVAILCPQNLDYLISFFGALYSGRIAVPLFDPAEPGHVGRLHAVLDDCAPSTILTTTDSAEGVRKFIRARSAKERPRVIAVDAVPTEVAATWQQPEANEETVAYLQYTSGSTRIPSGVQITHLNLPTNVVQVLNALEGQEGDRGVSWLPFFHDMGLITVLLASVLGHSFTFMTPAAFVRRPGRWIRELARKPGETGGTFSAAPNFAFEHAAVRGVPRDDEPPLDLSNVKGILNGSEPVSPASMRKFFEAFAPYGLKQTAVKPSYGLAEATLFVSTTPMDEVPTVIHVDRDELNNQRFVEVAADAPNAVAQVSAGKVGVSEWAVIVDADTASELPDGQIGEIWLHGNNLGTGYWGKEEESAQTFKNILKSRISESRAEGAPDDALWVRTGDYGTYFKDHLYIAGRIKDLVIIDGRNHYPQDLECTAQESTKALRVGYAAAFSVPANQLPQTVFDDSHAGLKFDPEDTSEQLVIVGERAAGTHKLDHQPIVDDIRAAIAVGHGVTVRDVLLVSAGTIPRTSSGKIGRRACRAAYLDGSLRSGVGSPTVFATSD
Consider B1, for which the binding entry in assay [2] was “no binding”.

B2: MmpL3 (full-size), T18/T25 fusion (protein, UniProt P9WJV5 1-944)
chain: T1 sequence
For B2, the binding result in assay [2] is “binds”.

B3: LprC devoid of its first 21 amino acids, with N-terminal hexahistidine tag (domain or fragment, UniProt A5U1X3 22-180)
chain: TKSISGTAVKAGGAGVPRNNNSQERYPNLLKECEVLTTDILAKTVGADPLDIQSTFVGAICRWQAANPAGLIDITRFWFEQGSLSNERKVAEGLKYQVETRAIQGVDSIVMRTGDPNGACGVASDAAGVVGWWVNPQAPGIDACGQAIKLMELTLATNA
As for B3, the binding result in assay [3] is “no binding (tested: 10 µM)”.

B4: Rv0207c, T18/T25 fusion (protein, UniProt P96389 1-242)
chain: MSLTEDVTSQTSESLARHSVLAEDLSQDGLTSLGAPGARVLLVWDAPNLDMGLGSILGRRPTALERPRFDALGRWLLARTAEIVAGRPGISTEPEATVFTNIAPGSAEVVRPWVDALRNVGFAVFAKPKVDEDSDVDRDMLAHIDERYREGLAALVVASADGQAFRQPLEAVARSGTPVQVLGFREHASWALASDTLEFVDLEDIAGVFREPLPRIGLDSLPEQGAWLQPFRPLSSLLTSRV
As for B4, the binding entry in assay [1] and in assay [2] was “binds” in each case.

B5: Rv0207c from M. tuberculosis H37Rv, C-terminal hexahistidine tag, purified (protein, UniProt P96389 1-242)
chain: B4 chain
With B5, the binding entry in assay [4] and in assay [5] was “binds” throughout.

B6: CrgA, T18/T25 fusion (protein, UniProt P9WP57 1-93)
chain: MPKSKVRKKNDFTVSAVSRTPMKVKVGPSSVWFVSLFIGLMLIGLIWLMVFQLAAIGSQAPTALNWMAQLGPWNYAIAFAFMITGLLLTMRWH
As for B6, the binding result in assay [1] and in assay [2] was “binds” in each case.

B7: CrgA from M. tuberculosis H37Rv, C-terminal hexahistidine tag, purified (protein, UniProt P9WP57 1-93)
chain: B6 chain
In the case of B7, the binding entry in assay [4] and in assay [5] was “binds” throughout.
